Results on 88 compounds are retold here after paper PMC4336329 (PLoS ONE, 2015).

About 2,200 (0.71%) of roughly 310,000 compounds showed an effect of 50% or more. Effects have a minus sign here. This is one part of the list.

Sequence of human ether-à-go-go-related gene (hERG) potassium channel (Q12809 whole entry, looked up): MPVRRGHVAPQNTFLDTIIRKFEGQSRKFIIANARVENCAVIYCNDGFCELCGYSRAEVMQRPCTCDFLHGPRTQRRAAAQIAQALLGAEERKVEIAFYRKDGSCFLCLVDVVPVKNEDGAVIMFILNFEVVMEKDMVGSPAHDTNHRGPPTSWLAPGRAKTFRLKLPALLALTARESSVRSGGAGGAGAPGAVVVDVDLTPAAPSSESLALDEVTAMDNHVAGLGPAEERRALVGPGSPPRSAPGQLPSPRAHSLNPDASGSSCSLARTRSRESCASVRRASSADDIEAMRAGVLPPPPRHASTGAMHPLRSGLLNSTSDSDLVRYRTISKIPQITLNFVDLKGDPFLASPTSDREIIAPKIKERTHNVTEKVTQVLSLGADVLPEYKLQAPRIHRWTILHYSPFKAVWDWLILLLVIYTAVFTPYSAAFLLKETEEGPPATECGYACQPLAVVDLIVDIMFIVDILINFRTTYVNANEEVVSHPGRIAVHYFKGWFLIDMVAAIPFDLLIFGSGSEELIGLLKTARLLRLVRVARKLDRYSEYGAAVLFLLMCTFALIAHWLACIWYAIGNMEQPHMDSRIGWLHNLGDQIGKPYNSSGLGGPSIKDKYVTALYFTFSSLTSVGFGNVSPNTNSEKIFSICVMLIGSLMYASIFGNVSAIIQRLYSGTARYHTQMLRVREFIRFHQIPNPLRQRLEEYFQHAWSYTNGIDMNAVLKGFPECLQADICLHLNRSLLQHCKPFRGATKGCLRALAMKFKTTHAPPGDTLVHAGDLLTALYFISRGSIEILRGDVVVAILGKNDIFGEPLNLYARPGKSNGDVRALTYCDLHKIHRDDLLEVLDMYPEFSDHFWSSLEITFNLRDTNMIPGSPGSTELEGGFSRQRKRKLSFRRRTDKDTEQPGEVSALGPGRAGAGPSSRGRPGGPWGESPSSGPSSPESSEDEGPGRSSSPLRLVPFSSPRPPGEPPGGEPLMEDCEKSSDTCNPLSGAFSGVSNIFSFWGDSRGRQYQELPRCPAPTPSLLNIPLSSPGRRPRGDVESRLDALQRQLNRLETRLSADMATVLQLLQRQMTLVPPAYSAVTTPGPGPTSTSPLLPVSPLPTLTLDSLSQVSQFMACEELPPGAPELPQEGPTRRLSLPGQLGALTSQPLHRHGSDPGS

The assay addresses human ether-à-go-go-related gene (hERG) potassium channel (human, UniProt Q12809). The assay is described as follows: primary screen, population patch clamp on CHO cells stably expressing hERG.
In the case of `CC1(C(=O)OCC(=O)NC(=O)c2ccccc2)CC1(Cl)Cl` (stereo not shown), the “hERG current change (%, negative = inhibition) at 1uM” value was 7.05%.
For `Cc1ccc(N(CC(=O)N(C)Cc2ccccc2)S(C)(=O)=O)cc1C` the value was 6.77%; for `CCCCCCCNC(=O)C1(CC2CC(c3ccc(Cl)cc3)=NO2)CCN(C(=O)c2cc(OCC)c(OCC)c(OCC)c2)CC1` (stereo not shown), 10.1%.
In the case of `CC(C)(C)OC(=O)NCCCCC1=CC2=CC(=O)C(C)(OC(=O)c3cnc4ccccc4n3)C(=O)C2=CO1` (stereo not shown), the “hERG current change (%, negative = inhibition) at 1uM” value is recorded as 14.2%.
`Cc1ccc(N2C(=O)C(Cl)=C(NCc3ccccc3)C2=O)c(C)c1`: the “hERG current change (%, negative = inhibition) at 1uM” value is reported as 7.46%.
Consider `CCC1CCCCN1CCCNC(=O)c1cn(C)c2ccc(S(=O)(=O)N(C)C3CCCCC3)cc2c1=O` (stereo not shown), for which the “hERG current change (%, negative = inhibition) at 1uM” value is -2.04%.
The same measure for `O=C([O-])CC(=O)NC12CC3CC(CC(C3)C1)C2.[Na+]`: 11.6%.
For `CCOc1ccccc1CN1C(=O)C2(OCCO2)c2ccccc21` the value was 13.6%; for `Cc1ccc(C(=O)NS(=O)(=O)c2ccc(N=NN(C)C)cc2)cc1`, 12.2%.
For the compound `CCC1CN(S(=O)(=O)c2cc(-c3cc(C)no3)ccc2OC)c2cc(C)ccc2O1` (stereo not shown), the “hERG current change (%, negative = inhibition) at 1uM” value is on record as -5.4%.
`Cc1nnc(SC(C)C(=O)Nc2c(C)n(C)n(-c3ccccc3)c2=O)n1N` (stereo not shown): the “hERG current change (%, negative = inhibition) at 1uM” value was determined as 8.47%.
For `CC(O)[C@H]1CNC(=S)N1CCc1cccc(F)c1` (stereo partly shown) the value was 16.6%.
The same measure for `COc1ccc(CNC(=O)C2CCCN(S(=O)(=O)c3cc(C)ccc3OC)C2)cc1` (stereo not shown): 6.66%; for `CC[n+]1c(C)n(-c2ccccc2)c2ccc(NC(C)=O)cc21.[I-]`: 13.4%.
For `CC1CC(C)CN(S(=O)(=O)c2ccc(C(=O)NCCCn3ccnc3)cc2)C1` (stereo not shown) the value was 9.09%; for `CCOC(=O)C1CCCN(C(=O)c2cn(C)c3ccc(S(=O)(=O)N4CCCC4)cc3c2=O)C1` (stereo not shown), 6.98%.
Consider `Cc1sc2nc(SC(C)C)nc(N)c2c1C`, for which the “hERG current change (%, negative = inhibition) at 1uM” value was found to be 1.82%.
The same measure for `Cc1ccc(C(=O)N2CCOCC2)cc1S(=O)(=O)N1CCCCC1`: 12.7%; for `CC(=O)c1ccc(N2CCN(S(=O)(=O)c3cc(-c4cc(C)no4)ccc3C(C)C)CC2)cc1`: 12.1%.
For `COc1cc2cc(C(N)=O)c(N)nc2cc1OC` the value was -5.49%; for `Cc1ccccc1N1CCN(C2CCCN(C(=O)c3snnc3C)C2)CC1` (stereo not shown), 13%; for `O=C(NC1CCCCCCC1)NC1CCCCC1`, -0.306%.
As for `O=C(Nc1ccc([N+](=O)[O-])cc1)Nc1ccc(OC(F)F)c(Cl)c1`, the “hERG current change (%, negative = inhibition) at 1uM” value is recorded as 12.6%.
For `O=C(CN1C(=O)c2ccccc2C1=O)Oc1ccc(Cl)cc1` the value was 13.4%.
For `COc1ccc(-c2nc(CS(=O)CC(=O)NC3CCCCC3)c(C)o2)cc1` (stereo not shown) the value was -10.2%; for `Fc1ccc(NC(=S)NN2CCOCC2)cc1Cl`, 16.7%; for `COc1cc(/C=C2/C(=N)N3N=C(CC(=O)N4CCOCC4)SC3=NC2=O)ccc1OCc1ccccc1F`, 13.2%.
`Cc1ccc(S(=O)(=O)N2CCN(C(=O)CN3C(=O)c4ccc([N+](=O)[O-])cc4C3=O)CC2)c(C)c1`: the “hERG current change (%, negative = inhibition) at 1uM” value turned out to be 8.65%.
As for `O=C(CCNC(=O)c1ccccc1Cl)Nc1cc(S(=O)(=O)N2CCOCC2)ccc1N1CCCC1`, the “hERG current change (%, negative = inhibition) at 1uM” value stood at 9.62%.
Regarding `CC(NC(=O)c1cccc2ccccc12)c1ccc2c(c1)CCCC2` (stereo not shown), the “hERG current change (%, negative = inhibition) at 1uM” value is recorded as 13.1%.
The same measure for `O=C(NCCCO)NC(=S)c1cccc2ccccc12`: 13.2%; for `CCc1nnc(NS(=O)(=O)c2ccc(N=Cc3c(C)[nH]n(-c4ccc(Cl)cc4)c3=O)cc2)s1`: 9.5%.
For `Cc1cccc(NC(=O)CSc2cccc3cccnc23)c1`, the “hERG current change (%, negative = inhibition) at 1uM” value stood at 6.24%.
With `COc1cc(CN(C)c2ncnc3sccc23)ccc1OC(F)F`, the “hERG current change (%, negative = inhibition) at 1uM” value was -0.356%.
The same measure for `Cc1nn(-c2ccccc2)c2c1C(c1ccc([N+](=O)[O-])cc1)C(C#N)=C(N)O2` (stereo not shown): 15.7%; for `CCOC(=O)c1cc(C#N)c(SCC(=O)OC)[nH]c1=O`: 3.41%; for `COc1ccc(S(=O)(=O)N2CCC(C(=O)N3CCOCC3)CC2)cc1OC`: 12.9%.
For `O=C(O)CCn1c(C2CCCCC2)nc2ccccc21`, the “hERG current change (%, negative = inhibition) at 1uM” value is -10.6%.
For `CC(=O)c1cccc(NC(=S)NC(=O)CC(C)(C)C)c1` the value was 1.95%; for `O=C(NCCC(=O)N1CCN(c2ccccc2O)CC1)c1ccc(Cl)cc1`, 10.7%; for `Cc1ccc(C2C3=C(NCCN=C3c3ccccc3)C(=O)N2c2ccccc2)cc1` (stereo not shown), 2.7%.
The same measure for `O=C(c1ccc([N+](=O)[O-])o1)N1CCN(c2nc3c(Cl)cccc3s2)CC1`: 1.85%; for `Cc1ccc(S(=O)(=O)Cc2ccc(C(=O)NCCc3ccccc3)o2)cc1`: 3.8%; for `COc1ccc(C(=O)Nc2cc(OC)cc(OC)c2)cc1`: 5.63%.
Regarding `Cn1c(N)c(C(=O)COc2ccc(C#N)cc2)c(=O)n(C)c1=O`, the “hERG current change (%, negative = inhibition) at 1uM” value is recorded as -0.193%.
The same measure for `Cc1ccc(NC(=O)C2CCN(S(=O)(=O)c3cccnc3)CC2)cc1C`: 14.2%; for `CC(NS(=O)(=O)c1ccc(OCC(=O)NCc2ccccn2)cc1)c1ccccc1` (stereo not shown): 8.66%; for `CCCCC(=O)Nc1ccc(C(=O)NNC(=S)NC(=O)c2cccs2)cc1`: 2.39%.
For `Cc1cc(C)nc(NC(=O)c2cccs2)c1`, the “hERG current change (%, negative = inhibition) at 1uM” value is recorded as 17.6%.
The same measure for `CCNC(=O)NC(=O)C(C)Sc1nc2ccccc2n1CC(C)C` (stereo not shown): 1.93%; for `Cc1cccc(NS(=O)(=O)c2cc3c(cc2C)NC(=O)CO3)c1`: -3.61%; for `Cc1ccc(-c2nn(Cc3ccccc3)cc2/C=C/C(=O)O)cc1C`: 24%.
Consider `COc1cc(C(=O)NC(=S)N2CCCCCC2)cc(OC)c1OC`, for which the “hERG current change (%, negative = inhibition) at 1uM” value was found to be 15.7%.
For the compound `CC1(C)c2ssc(=S)c2-c2ccccc2N1C(=O)c1ccco1`, the “hERG current change (%, negative = inhibition) at 1uM” value was 14.6%.
For `O=C(OCC(=O)c1ccc(Cl)s1)c1ccc(CO)cc1` the value was 9.9%.
Regarding `CCN(CC)Cc1c(O)ccc2c(=O)c(-c3ccc4c(c3)OCCO4)coc12`, the “hERG current change (%, negative = inhibition) at 1uM” value is given as 11.9%.
For `CCCNC(=O)COC(=O)CCC(=O)c1cccs1` the value was 11%; for `O=C(Cc1ccc([N+](=O)[O-])cc1)N1CCCCCC1`, 0.724%; for `O=C(CSc1nnc(-c2ccc(F)cc2)o1)c1ccc2c(c1)OCCO2`, 9.46%.
Regarding `COc1cccc(N2CC(C(=O)Nc3nnc(SCC(=O)NC4CCCC4)s3)CC2=O)c1` (stereo not shown), the “hERG current change (%, negative = inhibition) at 1uM” value is 15.2%.
For `COc1cccc(/C=C2\Sc3ccc(C(=O)NCc4cccnc4)cc3N(C)C2=O)c1` the value was 1.32%.
Turning to `COc1ccc(CCC(C)Nc2ccc(F)c(F)c2)cc1` (stereo not shown), the “hERG current change (%, negative = inhibition) at 1uM” value is reported as -26.7%.
For `CN1CCN(C(=S)NC(=O)c2ccc(Br)cc2)CC1` the value was 9.77%.
For `CCOC(=O)c1c(-c2ccccc2)csc1NC(=S)NC` the value was -2.22%.
The same measure for `O=C(CN1CCN(S(=O)(=O)c2ccc(Br)cc2)CC1)Nc1ccc(F)cc1`: -21.3%; for `O=C(c1cccc(Br)c1)N1CCN(S(=O)(=O)N2CCCCCC2)CC1`: 4.48%; for `Cc1ccc(S(=O)(=O)NCC2CCCO2)cc1[N+](=O)[O-]` (stereo not shown): 8.5%.
Regarding `CCCCn1c(N)c(N(CCOC)C(=O)c2cc(CC)c(C)s2)c(=O)[nH]c1=O`, the “hERG current change (%, negative = inhibition) at 1uM” value is recorded as 17.7%.
Consider `COc1ccc(-c2coc3cc4oc(=O)c5ccccc5c4cc23)cc1F`, for which the “hERG current change (%, negative = inhibition) at 1uM” value was 6.05%.
For `CN(C)c1nc(N(C)C)n(C(=O)c2cccs2)n1` the value was 7.77%; for `COc1ccc2oc(=O)c(C(=O)NCCc3ccc(OC)c(OC)c3)cc2c1`, 0.0709%; for `CC(=O)c1ccc(N2CCN(S(=O)(=O)c3ccc4c(c3)CC(C)N4C(C)=O)CC2)cc1` (stereo not shown), 12%.
Consider `O=S(=O)(c1ccc(N2CCN(S(=O)(=O)c3ccc4c(c3)OCCO4)CC2)nc1)N1CCCC1`, for which the “hERG current change (%, negative = inhibition) at 1uM” value is -4.44%.
As to `Cc1cccc(NC(=S)N(CCN(C)C)Cc2cc3cc(C)cc(C)c3[nH]c2=O)c1`, the “hERG current change (%, negative = inhibition) at 1uM” value was 2.63%.
The same measure for `O=C(Cn1cncn1)c1ccc(F)cc1F`: 20.7%; for `CCOC(=O)Cc1c(C)nc2c(-c3ccccc3)cnn2c1C`: 4.63%; for `NC(=O)c1nc(C(=O)N2CCCCC2)c2ccccc2n1`: 13%.
For `CC(=O)c1ccc(OC(=O)c2cccs2)cc1` the value was 7.58%.
As for `Fc1ccc(-c2nnc(-c3ccc(F)cc3)o2)cc1`, the “hERG current change (%, negative = inhibition) at 1uM” value is 12.5%.
For `Cc1oncc1-c1csc(-c2ccccc2)n1` the value was 15.5%; for `CC(C)=CCC/C(C)=C/CN(CC(C)O)CC(C)O` (stereo not shown), 10.3%; for `CC(C)(C)NC(=O)NC(=O)COC(=O)C1=COCCO1`, -1.67%.
For `Cc1ccc(S(=O)(=O)N2CCCCC2)cc1NC(=O)CNC(C)c1ccc(Cl)c(Cl)c1` (stereo not shown) the value was 14.4%.
The same measure for `C/C(=C\C(=O)c1ccccc1)Nc1cccc(O)c1`: 12.4%; for `Cc1cccn2c(=O)c(/C=C(\C#N)S(=O)(=O)c3ccccc3)c(Oc3ccc(Cl)cc3)nc12`: 10.6%; for `COC(=O)c1ccccc1NS(=O)(=O)c1ccc(Cl)nc1`: 2.55%.
`Cc1cc(=O)oc2c(CN3CCN(CCO)CC3)c(O)ccc12`: the “hERG current change (%, negative = inhibition) at 1uM” value was 9.44%.
As for `COc1ccc(NS(=O)(=O)c2cccc(-c3nnc(-c4ccccc4)o3)c2)cc1`, the “hERG current change (%, negative = inhibition) at 1uM” value is 4.81%.
